Out of some 310,000 compounds screened, about 14,000 (4.5%) showed an effect of 50% or more. The effect is printed as a negative number. This is one part of the list.
Target: human ether-à-go-go-related gene (hERG) potassium channel (human, UniProt Q12809)
Experiment: primary screen, population patch clamp on CHO cells stably expressing hERG
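Note: peak tail current of the secondary pulse compared with the same well before compound.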

human ether-à-go-go-related gene (hERG) potassium channel, sequence (Q12809 whole entry, looked up): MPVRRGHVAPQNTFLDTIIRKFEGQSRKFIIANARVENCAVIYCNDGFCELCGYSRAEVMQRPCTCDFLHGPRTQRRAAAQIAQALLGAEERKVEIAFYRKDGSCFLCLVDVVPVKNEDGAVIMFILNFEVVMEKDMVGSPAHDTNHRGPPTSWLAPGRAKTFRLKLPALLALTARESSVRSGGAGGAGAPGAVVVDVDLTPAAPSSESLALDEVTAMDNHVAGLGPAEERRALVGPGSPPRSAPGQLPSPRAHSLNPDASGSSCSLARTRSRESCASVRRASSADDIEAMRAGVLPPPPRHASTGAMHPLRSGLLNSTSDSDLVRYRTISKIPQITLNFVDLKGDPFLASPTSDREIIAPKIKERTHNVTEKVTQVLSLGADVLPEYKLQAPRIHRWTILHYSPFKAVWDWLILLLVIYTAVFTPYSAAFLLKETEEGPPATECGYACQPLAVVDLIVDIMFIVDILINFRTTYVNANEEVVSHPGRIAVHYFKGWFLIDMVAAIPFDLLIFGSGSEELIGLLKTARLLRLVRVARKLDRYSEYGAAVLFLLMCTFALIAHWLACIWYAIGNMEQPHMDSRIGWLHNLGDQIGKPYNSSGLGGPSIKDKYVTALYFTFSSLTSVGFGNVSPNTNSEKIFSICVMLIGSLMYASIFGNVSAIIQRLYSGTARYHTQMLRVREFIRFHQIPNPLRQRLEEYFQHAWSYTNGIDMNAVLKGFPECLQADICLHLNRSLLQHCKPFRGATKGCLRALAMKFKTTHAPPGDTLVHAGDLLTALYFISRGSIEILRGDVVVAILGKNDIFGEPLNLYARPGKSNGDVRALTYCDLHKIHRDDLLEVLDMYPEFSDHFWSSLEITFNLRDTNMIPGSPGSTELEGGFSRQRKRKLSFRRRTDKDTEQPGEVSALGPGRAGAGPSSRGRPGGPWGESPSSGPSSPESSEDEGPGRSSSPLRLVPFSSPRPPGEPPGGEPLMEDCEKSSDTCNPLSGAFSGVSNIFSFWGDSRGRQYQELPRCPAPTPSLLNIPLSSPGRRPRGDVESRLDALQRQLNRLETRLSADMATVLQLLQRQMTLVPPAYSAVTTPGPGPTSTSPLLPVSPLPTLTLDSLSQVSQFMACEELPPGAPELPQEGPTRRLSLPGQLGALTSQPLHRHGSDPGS

Compared with `Cc1cccc(-n2nnc(C(=O)NCc3ccccn3)c2N)c1`, `Cc1cccc(-n2c(/C=C/c3ccccn3)nc3ccccc3c2=O)c1` is higher in “hERG current change (%, negative = inhibition) at 10uM” value: 0.598% for the first, 15.1% for the second.

Going from `O=C(Nc1ccccn1)c1ccc(Br)c(S(=O)(=O)N2CCCC2)c1` to `Cc1cc(NC(=O)c2cccc(S(=O)(=O)N3CCCC3)c2)no1`, the “hERG current change (%, negative = inhibition) at 10uM” value rises from -7.5% to 5.68%.

Compared with `CC(C)CC(C(=O)NC1CCCCC1)N(Cc1cccs1)C(=O)c1snc(C(N)=O)c1N` (stereo not drawn), `Cc1ccc(N(C(=O)CCC(=O)Nc2cc(C)on2)C(C(=O)NC2CCCC2)c2cccs2)cc1` (stereo not drawn) is lower in “hERG current change (%, negative = inhibition) at 10uM” value: 7.49% for the first, -37.7% for the second.

Compared with `COc1ccc(C(=O)OCC(=O)NC2CCCC2)c(OC)c1OC`, `COc1cc(C(=O)N2CCN(C)CC2)cc(OC)c1OC.Cl` is higher in “hERG current change (%, negative = inhibition) at 10uM” value: 11% for the first, 20% for the second.

Compared with `COc1ccc(NC(=O)Cn2nnc(C(=O)NCc3cccs3)c2N)cc1`, `COc1ccc(CC(=O)N[C@@H](CCSC)c2nc3ccccc3[nH]2)cc1` is lower in “hERG current change (%, negative = inhibition) at 10uM” value: 13.9% for the first, 0.782% for the second.

Compared with `Cc1ccc(CSc2nnc(C(F)(F)F)n2Cc2ccc(F)cc2)cc1`, `Nc1cc(=O)[nH]c(SCc2ccc(Cl)cc2)n1` is lower in “hERG current change (%, negative = inhibition) at 10uM” value: -1.96% for the first, -11.4% for the second.

Going from `Cc1ccccc1NC(=O)c1ccccc1NC(=O)c1ccco1` to `O=C(Nc1ccccc1)C1=C(O)CC(c2ccoc2)CC1=Nc1ccccc1` (stereo not drawn), the “hERG current change (%, negative = inhibition) at 10uM” value rises from 5% to 15%.

First: COc1cccc(C2=Nn3c(nnc3-c3ccccc3O)SC2)c1
Second: COc1ccc(O)c(CNn2c(-c3ccc(Br)cc3)nc3ccccc3c2=O)c1
The “hERG current change (%, negative = inhibition) at 10uM” value of the first is higher: 16.9% for the first, -3.24% for the second.

Compared with `O=C(c1ccco1)N1CCc2[nH]nc(-c3ccc(Cl)cc3)c2C1`, `Cc1oc(-c2ccc(Cl)cc2)nc1CN1CCCC(C(=O)N2CCN(C(=O)c3ccco3)CC2)C1` (stereo not drawn) is lower in “hERG current change (%, negative = inhibition) at 10uM” value: -21.3% for the first, -89.5% for the second.

Going from `O=C(CSc1nnnn1C1CCCCC1)N1CCOCC1` to `O=C(Nc1nnc(CCN2CCCCC2)s1)C1CCCCC1`, the “hERG current change (%, negative = inhibition) at 10uM” value rises from -9.94% to -7.27%.

First: COc1ccccc1N1CCN(C(c2cccs2)C(C)NS(=O)(=O)c2ccccc2)CC1 (stereo not drawn)
Second: O=C(O)C1Cc2ccccc2CN1S(=O)(=O)c1ccccc1 (stereo not drawn)
The “hERG current change (%, negative = inhibition) at 10uM” value of the first is lower: -2.4% for the first, 9.88% for the second.

Going from `O=C(CCc1ccccc1)OCC(=O)c1ccc([N+](=O)[O-])cc1` to `O=c1cc(-c2ccc([N+](=O)[O-])cc2)c2ccc(O)cc2o1`, the “hERG current change (%, negative = inhibition) at 10uM” value falls from 20.6% to 1.63%.

Compared with `O=C(OCCN=C1NS(=O)(=O)c2ccccc21)c1ccncc1`, `CC(Oc1ccccc1Cl)C(=O)N(Cc1cccs1)C1CCS(=O)(=O)C1` (stereo not drawn) is lower in “hERG current change (%, negative = inhibition) at 10uM” value: -1.44% for the first, -31.7% for the second.

Going from `CN(C)c1ccc(-c2nnc(SCC3CCCO3)n2C)cc1` (stereo not drawn) to `COc1ccc(-c2nc(CN(C)C(C)c3ccon3)c(C)o2)c(C)c1C` (stereo not drawn), the “hERG current change (%, negative = inhibition) at 10uM” value rises from 5.24% to 20.1%.

First: COC(=O)c1ccc2c(=O)n(Cc3ccc4c(c3)OCO4)c(=S)[nH]c2c1
Second: COC(=O)C(Cc1ccc(O)cc1)NC(=O)c1ccc2c(c1)OCCO2 (stereo not drawn)
The “hERG current change (%, negative = inhibition) at 10uM” value of the first is lower: 16.3% for the first, 21.4% for the second.

First: O=c1cccc2n1CC1CC2CN(C(c2ccccc2)c2sc3ncnn3c2O)C1 (stereo not drawn)
Second: O=C(Nc1nc(-c2ccccc2)cs1)Nc1ccc(F)cc1F
The “hERG current change (%, negative = inhibition) at 10uM” value of the first is higher: 15.1% for the first, 11.7% for the second.

Going from `N#C/C(C(=O)c1ccccc1)=C1/CCCCCN1` to `CCOC(=O)C1CCN(C(=S)Nc2ccccc2)CC1`, the “hERG current change (%, negative = inhibition) at 10uM” value falls from 14.1% to 13.6%.

Compared with `O=C(OCc1ccc(C(=O)c2ccccc2)cc1)c1cccc(-c2nnc(-c3ccccc3)o2)c1`, `CC12C(=O)N(c3cccc(OC(=O)c4ccco4)c3)C(=O)C1C1c3ccccc3C2c2ccccc21` (stereo not drawn) is higher in “hERG current change (%, negative = inhibition) at 10uM” value: -0.909% for the first, 7.85% for the second.

Compared with `CCOC(=O)[C@@H](C)NS(=O)(=O)N(Cc1ccccc1)[C@H](C(=O)OC)C(C)C`, `CCOC(=O)CCCCNC(=O)Nc1ccccc1` is higher in “hERG current change (%, negative = inhibition) at 10uM” value: -3.86% for the first, 38.2% for the second.

Going from `CCc1ccc2[nH]c(=O)c(CN(CCO)C(=O)NCc3ccccc3)cc2c1` to `Cc1cc(C(=O)N/N=C/c2ccc([N+](=O)[O-])s2)c2ccccc2n1`, the “hERG current change (%, negative = inhibition) at 10uM” value rises from 3.64% to 10.2%.

First: O=C(Nc1cc(Cl)ccc1Cl)C1CC(=O)N(c2ccc(Br)cc2)C1 (stereo not drawn)
Second: CCS(=O)(=O)N1Cc2ccccc2CC1C(=O)Nc1nnc(SCc2c(Cl)cccc2Cl)s1 (stereo not drawn)
The “hERG current change (%, negative = inhibition) at 10uM” value of the first is higher: 36.4% for the first, 18.7% for the second.

Compared with `CS(=O)(=O)N(CC(=O)NCc1ccco1)c1ccc2c(c1)OCO2`, `COc1ccc(C(=O)NC(=S)NCc2cccnc2)cc1Br` is lower in “hERG current change (%, negative = inhibition) at 10uM” value: -11.9% for the first, -23.9% for the second.

First: O=C(CN1CCN(C/C=C/c2ccccc2)CC1)Nc1ccc(F)cc1F
Second: O=C(O)CC/C(=N\NC(=O)CNC(=O)/C=C/c1ccccc1)c1ccccc1
The “hERG current change (%, negative = inhibition) at 10uM” value of the first is lower: -78.1% for the first, 12.1% for the second.

Going from `CCn1nccc1C(=O)Nc1nc2ccccc2n1CCN1CCCCC1` to `CC1CCCCN1C(=O)COC(=O)c1ccc2ccccc2n1` (stereo not drawn), the “hERG current change (%, negative = inhibition) at 10uM” value rises from -39.8% to 10%.

Compared with `Cc1cc(OCCn2ccnc2)cc(C)c1Cl`, `Cc1ccc(NNC(=O)c2ccno2)c(C)c1` is higher in “hERG current change (%, negative = inhibition) at 10uM” value: 6.52% for the first, 11.1% for the second.

Compared with `CC(C)N(Cc1nccn1C)C(=O)c1cc(COc2ccc(-n3cncn3)cc2)on1`, `CCCc1cc(C(=O)Nc2cccnc2Cl)no1` is higher in “hERG current change (%, negative = inhibition) at 10uM” value: -51.5% for the first, 11.5% for the second.

Compared with `CCCCS(=O)(=O)c1sc2nc(C)cc(C)c2c1N`, `Cc1cc(C)cc(NC(=O)Cn2cc3c(n2)CCCCC3)c1` is lower in “hERG current change (%, negative = inhibition) at 10uM” value: 4.78% for the first, -6.38% for the second.

First: CC(=O)N1N=C(c2cccc([N+](=O)[O-])c2)OC1(C)c1cccs1 (stereo not drawn)
Second: Cc1c(NC(=O)Nc2cccs2)cccc1[N+](=O)[O-]
The “hERG current change (%, negative = inhibition) at 10uM” value of the first is lower: -36.5% for the first, 22.4% for the second.

In the case of `COc1cc(/C=C2/C(=N)N3N=C(CC(=O)N4CCOCC4)SC3=NC2=O)ccc1OCc1ccc(F)cc1`, the “hERG current change (%, negative = inhibition) at 10uM” value is reported as 16.1%.

Reference: paper PMC4336329 (PLoS ONE, 2015)
